# Experimental data: PubChem BioAssay (NCATS)
# Values joined by “and” are separate entries in the source; they are usually repeats but may differ in a detail not shown here. Equal values may be shown once. Inconclusive results, whose numbers are uncertain, are shown with a selection of clear calls. For part of these data: Potencies beside an inconclusive call are fits to weak or partial responses and may not hold up. Active and inactive are the calls of the source. Unless noted, calls follow the shape of the dose curve; as a rule, active = well fitted curve in the direction sought with a large enough effect; inconclusive = small, poorly fitted or top-dose-only effect, or another doubt; inactive = no such curve, though single readings can be large; an effect the other way counts as inactive or inconclusive.
# Columns and labels:
# [1] = qHTS of pediatric cancer cell lines to identify multiple opportunities for drug repurposing: Primary screen for DAOY cells (AID 1347090);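 also: plate controls were DMSO for no effect and bortezomib for full effect; nearly all actives have a fitted effect of over 55% in size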
# Method in brief: (§1)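 Eight- or eleven-point concentration series, 48 h treatment at 37 degrees C in growth media; readout CellTiter-Glo luminescence. Potency and efficacy were taken from the concentration-response curves.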
# [2] = qHTS of pediatric cancer cell lines to identify multiple opportunities for drug repurposing: Primary screen for SJ-GBM2 cells (AID 1347091); also: potency is read from the fitted curve at half-maximal effect;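 as to activity change, negative = cytotoxic: plate controls were DMSO neutral control for no effect and bortezomib for full effect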
# Method in brief: as §1
# [3] = system: CP260; assay: qHTS profiling for inhibitors of Plasmodium falciparum proliferation (AID 504749); also: nearly all actives have a fitted effect of over 60% in size; also: potency is read from the fitted curve at half-maximal effect;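 as to activity, negative = inhibition: 0% = DMSO vehicle and full inhibition = artemisinin control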; settings: P. falciparum in erythrocytes, SYBR Green DNA, 72 h; series mostly up to 28.7 µM
# Method in brief: (§2)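 P. falciparum-infected erythrocytes (0.3% parasitemia, 2.5% hematocrit final) were exposed to compounds for 72 h at 37 C in 5% CO2, then lysed with SYBR Green buffer overnight at room temperature; parasite DNA fluorescence was normalized to artemisinin and DMSO controls.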
# [4] = system: W2; assay: as above; settings: P. falciparum in erythrocytes, SYBR Green DNA, 72 h; activity, negative = inhibition: at 28.7 µM (top of the series)
# Method in brief: as §2
# [5] = P-glycoprotein substrates identified in KB-8-5-11 adenocarcinoma cell line, qHTS therapeutic library screen (AID 1346987); settings: activity change, negative = cytotoxicity: at 44.5 µM (top of the series); also: % is scaled to controls: 0 for no effect and ±100 for the full control effect; nearly all actives have a fitted effect of over 65% in size
# Method in brief: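 P-gp-mediated resistance screen: KB-8-5-11 cells treated 72 h with compounds in dose-response. CellTiter-Glo viability.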
# [6] = qHTS of pediatric cancer cell lines to identify multiple opportunities for drug repurposing: Primary screen for Rh41 cells (AID 1347108); also: nearly all actives have a fitted effect of over 70% in size; also: potency is read from the fitted curve at half-maximal effect;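 as to activity change, negative = cytotoxic: luminescence drop marks cytotoxic hits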
# Method in brief: (§3)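 CRCs from 8- or 11-point titrations (lowest final 0.59 nM NPC, 0.78 nM MIPE). Cell viability: CellTiter-Glo after 48 h incubation, 15 min room-temperature development, luminescence imaging.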
# [7] = system: OV90; assay: Primary qHTS to identify gynecologic anti-cancer compounds using libraries of approved drugs and bioactive compounds (AID 1345084); settings: Gynecologic cancer cell panel viability, ATPlite luminescence, 48 h; series mostly up to 57.5 µM; also: nearly all actives have a fitted effect of over 55% in size; also: potency is read from the fitted curve at half-maximal effect; as to activity change, negative = cytotoxicity: % is scaled to controls: 0 for no effect and ±100 for the full control effect
# Method in brief: (§4)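 ATP-based viability (ATPlite), 1,000 cells/well, 16 h pre-incubation, 48 h compound at 37 C, 5% CO2, 15 min RT before read.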
# [8] = system: ICS; assay: qHTS profiling for inhibitors of Plasmodium falciparum proliferation (AID 504749); also: nearly all actives have a fitted effect of over 60% in size; also: potency is read from the fitted curve at half-maximal effect;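 as to activity, negative = inhibition: 0% = DMSO vehicle and full inhibition = artemisinin control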; settings: P. falciparum in erythrocytes, SYBR Green DNA, 72 h; series mostly up to 28.7 µM
# Method in brief: as §2
# [9] = qHTS of pediatric cancer cell lines to identify multiple opportunities for drug repurposing: Primary screen for BT-37 cells (AID 1347094); also: potency is read from the fitted curve at half-maximal effect;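 as to activity change, negative = cytotoxic: plate controls were DMSO for no effect and bortezomib for full effect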
# Method in brief: as §3
# [10] = qHTS of pediatric cancer cell lines to identify multiple opportunities for drug repurposing: Primary screen for MG 63 (6-TG R) cells (AID 1347105); settings: MG 63 (6-TG R) viability, CellTiter-Glo, 48 h; activity change, negative = cytotoxic: at 46 µM (top of the series); also: potency is read from the fitted curve at half-maximal effect; nearly all actives have a fitted effect of over 50% in size
# Method in brief: as §3
# [11] = system: CAOV3; assay: Primary qHTS to identify gynecologic anti-cancer compounds using libraries of approved drugs and bioactive compounds (AID 1345084); settings: Gynecologic cancer cell panel viability, ATPlite luminescence, 48 h; series mostly up to 57.5 µM; also: nearly all actives have a fitted effect of over 55% in size; also: potency is read from the fitted curve at half-maximal effect; as to activity change, negative = cytotoxicity: % is scaled to controls: 0 for no effect and ±100 for the full control effect
# Method in brief: as §4
# [12] = system: Tov-21-G; assay: as above; settings: Gynecologic cancer cell panel viability, ATPlite luminescence, 48 h; series mostly up to 57.5 µM
# Method in brief: as §4
# [13] = NFAT Signaling Pathway (AID 444; active = well fitted curve in either direction with a large enough effect, not every such curve was filed as active; inconclusive = small, poorly fitted or top-dose-only effect, or another doubt;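 also: carbachol stimulus at about its EC50 of 1 µM final; % is scaled to controls: 0 for no effect and ±100 for the full control effect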); settings: Jurkat NFAT-bla M1, carbachol, beta-lactamase ratio, 5 h
# Method in brief: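 Jurkat cells carrying an NFAT-driven β-lactamase reporter and co-transfected muscarinic M1 receptor were treated with compound plus carbachol (1 uM final, an EC50 level) for 5 h at 37 °C. CCF4 loading followed for 1 h at RT; 460/530 nm ratio gave %activity.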
# [14] = system: Zika virus NS2B-NS3 protease; assay: Primary screen GU AMC qHTS for Zika virus inhibitors (AID 1347154); also: potency is read from the fitted curve at half-maximal effect; nearly all actives have a fitted effect of over 70% in size
# Method in brief: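 Unlinked Zika NS2B hydrophilic domain/NS3 protease domain noncovalent complex (25 nM final) in 10 mM Tris-HCl pH 8.0, 0.01% Tween 20, with AMC peptide substrate. Fluorescence (ex 340, em 450 nm) change over 15 min, room temperature; percent inhibition fitted to 4-parameter Hill equation.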
# [15] = system: Hek293T; assay: Primary qHTS to identify gynecologic anti-cancer compounds using libraries of approved drugs and bioactive compounds (AID 1345084); settings: Gynecologic cancer cell panel viability, ATPlite luminescence, 48 h, control line for the selectivity index; series mostly up to 57.5 µM; also: nearly all actives have a fitted effect of over 55% in size; also: potency is read from the fitted curve at half-maximal effect; as to activity change, negative = cytotoxicity: % is scaled to controls: 0 for no effect and ±100 for the full control effect
# Method in brief: as §4
# Tags tell the direction and shape of the fitted curve.
smiles,measurement,setting,value
C#CCN(C)CCCOc1ccc(Cl)cc1Cl,Potency,[1],inactive
same,Potency,[2],inactive
same,Potency,[3],inactive
same,Potency,[4],"inconclusive: 19 µM [inhibitor, single point]"
C/C=C/C=N/NC(=O)c1ccncc1,Potency,[5],inactive
CC1(C)OC[C@@H](COC(=O)CCc2ccc(OC[C@@H](O)CNCCNC(=O)N3CCOCC3)cc2)O1,Potency,[6],inactive
CNCc1ccccc1,Potency,[2],inactive
same,Potency,[7],"inconclusive: 7.94 µM [cytotoxic, partial curve, poor fit]"
same,Potency,[8],inactive
same,Potency,[4],inactive
O=C(O)Cn1cnnn1,Potency,[9],inactive
CCCCCCCCCCCCCCCCOP(=O)([O-])OCC[N+](C)(C)C,Potency,[10],"inconclusive: 16.8 µM [cytotoxic, partial curve, poor fit]"
same,Potency,[6],"inconclusive: 26.6 µM [cytotoxic, partial curve, poor fit]"
same,Potency,[11],"inconclusive: 39.8 µM [cytotoxic, single point]"
same,Potency,[7],active: 25.1 µM
same,Potency,[12],active: 25.1 µM
same,Potency,[8],inactive
same,Potency,[4],"inconclusive: 9.53 µM [inhibitor, partial curve, poor fit]"
CCn1cc(C(=O)O)c(=O)c2cc(F)c(N3CCNCC3)cc21,"activity change, negative = inhibition",[13]; at 17.2 µM (top of the series),inactive: 1.51% and inactive: 17.3%
same,Potency,[14],"inconclusive: 16.1 µM [inhibitor, partial curve] and inconclusive: 4.82 µM [inhibitor, full curve, poor fit]"
same,Potency,[11],inactive
same,Potency,[3],"inconclusive: 3.16 µM [inhibitor, partial curve]"
same,Potency,[8],"inconclusive: 10 µM [inhibitor, single point]"
CCN(CC)CCOC(=O)C1(C2CCCCC2)CCCCC1,"activity change, negative = inhibition",[13]; at 17.2 µM (top of the series),inconclusive: -42.4% [inhibitor] and active: -68.8%
same,"activity change, negative = inhibition",[13]; at 38 µM (top of the series),active: -63.7%
same,Potency,[1],inactive
same,Potency,[2],"inconclusive: 15 µM [cytotoxic, single point]"
same,Potency,[9],"inconclusive: 30.9 µM [cytotoxic, partial curve, poor fit]"
CC1CCN(CCCC(=O)c2ccc(F)cc2)CC1,Potency,[15],inactive
same,Potency,[4],"inconclusive: 16.9 µM [inhibitor, single point]"
